Assay results reported in paper PMC9911399, “Two distinct binding modes provide the RNA-binding protein RbFox with extraordinary sequence specificity”.
Residue numbers refer to the chain shown, from its start. The list shows a part of the results.

T1: RBFOX1 RRM RbFoxmut (Fox-RRM*) (Homo sapiens, UniProt Q9NWB1 109-208, R118D;E147R;N151S;E152T)
T1 sequence: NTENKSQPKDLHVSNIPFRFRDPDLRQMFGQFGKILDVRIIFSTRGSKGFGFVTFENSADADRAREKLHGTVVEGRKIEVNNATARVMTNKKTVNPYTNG

B1: AUGACCU (DNA:RNA)
RNA: GGGAGACCGGAAUUCAGAUUGUCCAUGACCUUUAAAUCCCGUCGUAGCCACCA
DNA 1: CAATCTGAATTCCGGTCTCCC
DNA 2: TGGTGGCTACGACGGGATT
B2: AGACUCC (DNA:RNA)
RNA: B1 RNA with U26G, G27A, A28C, C29U, U31C
DNA 1: CAATCTGAATTCCGGTCTCCC
DNA 2: TGGTGGCTACGACGGGATT
B3: CGACUCU (DNA:RNA)
RNA: B1 RNA with A25C, U26G, G27A, A28C, C29U
DNA 1: CAATCTGAATTCCGGTCTCCC
DNA 2: TGGTGGCTACGACGGGATT
B4: GCUCCCG (DNA:RNA)
RNA: B1 RNA with A25G, U26C, G27U, A28C, U31G
DNA 1: CAATCTGAATTCCGGTCTCCC
DNA 2: TGGTGGCTACGACGGGATT
B5: UUAUAAU (DNA:RNA)
RNA: B1 RNA with A25U, G27A, A28U, C29A, C30A
DNA 1: CAATCTGAATTCCGGTCTCCC
DNA 2: TGGTGGCTACGACGGGATT
B6: UACUGUU (DNA:RNA)
RNA: B1 RNA with A25U, U26A, G27C, A28U, C29G, C30U
DNA 1: CAATCTGAATTCCGGTCTCCC
DNA 2: TGGTGGCTACGACGGGATT
B7: CGUAAAU (DNA:RNA)
RNA: B1 RNA with A25C, U26G, G27U, C29A, C30A
DNA 1: CAATCTGAATTCCGGTCTCCC
DNA 2: TGGTGGCTACGACGGGATT
B8: GUGCGGA (DNA:RNA)
RNA: B1 RNA with A25G, A28C, C29G, C30G, U31A
DNA 1: CAATCTGAATTCCGGTCTCCC
DNA 2: TGGTGGCTACGACGGGATT
B9: AAUAGAU (DNA:RNA)
RNA: B1 RNA with U26A, G27U, C29G, C30A
DNA 1: CAATCTGAATTCCGGTCTCCC
DNA 2: TGGTGGCTACGACGGGATT
B10: UUCCUCC (DNA:RNA)
RNA: B1 RNA with A25U, G27C, A28C, C29U, U31C
DNA 1: CAATCTGAATTCCGGTCTCCC
DNA 2: TGGTGGCTACGACGGGATT
B11: AAGUCCU (DNA:RNA)
RNA: B1 RNA with U26A, A28U
DNA 1: CAATCTGAATTCCGGTCTCCC
DNA 2: TGGTGGCTACGACGGGATT
B12: GGCAAGC (DNA:RNA)
RNA: B1 RNA with A25G, U26G, G27C, C29A, C30G, U31C
DNA 1: CAATCTGAATTCCGGTCTCCC
DNA 2: TGGTGGCTACGACGGGATT
B13: UGCUCUG (DNA:RNA)
RNA: B1 RNA with A25U, U26G, G27C, A28U, C30U, U31G
DNA 1: CAATCTGAATTCCGGTCTCCC
DNA 2: TGGTGGCTACGACGGGATT
B14: UCCUCAG (DNA:RNA)
RNA: B1 RNA with A25U, U26C, G27C, A28U, C30A, U31G
DNA 1: CAATCTGAATTCCGGTCTCCC
DNA 2: TGGTGGCTACGACGGGATT
B15: GCCAUCU (DNA:RNA)
RNA: B1 RNA with A25G, U26C, G27C, C29U
DNA 1: CAATCTGAATTCCGGTCTCCC
DNA 2: TGGTGGCTACGACGGGATT
B16: CCGAGCC (DNA:RNA)
RNA: B1 RNA with A25C, U26C, C29G, U31C
DNA 1: CAATCTGAATTCCGGTCTCCC
DNA 2: TGGTGGCTACGACGGGATT
B17: CGCGCCU (DNA:RNA)
RNA: B1 RNA with A25C, U26G, G27C, A28G
DNA 1: CAATCTGAATTCCGGTCTCCC
DNA 2: TGGTGGCTACGACGGGATT
B18: AAGCACC (DNA:RNA)
RNA: B1 RNA with U26A, A28C, C29A, U31C
DNA 1: CAATCTGAATTCCGGTCTCCC
DNA 2: TGGTGGCTACGACGGGATT
B19: GAUCGUU (DNA:RNA)
RNA: B1 RNA with A25G, U26A, G27U, A28C, C29G, C30U
DNA 1: CAATCTGAATTCCGGTCTCCC
DNA 2: TGGTGGCTACGACGGGATT
B20: UCUCCGG (DNA:RNA)
RNA: B1 RNA with A25U, U26C, G27U, A28C, C30G, U31G
DNA 1: CAATCTGAATTCCGGTCTCCC
DNA 2: TGGTGGCTACGACGGGATT

Each binder was assayed against T1, RBFOX1 RRM RbFoxmut (Fox-RRM*) (assay: EMSA; HiTS-Eq, 1 nM pool, 10 min; buffer printed only for the single-RNA assays: 10 mM Tris pH 7.5, 150 mM NaCl, 3.4 mM EDTA, 0.001% NP-40, 30 C). Conditions: tags: His6 N-terminal (pET28a); label: 5' 32P.
Method in brief: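 Purified wild-type or mutant RbFox RRM at increasing concentrations was equilibrated with 1 nM of 5′-radiolabelled RNA carrying 7 randomized nucleotides for 10 min in 50 µL. Unbound RNA was separated by 8% native PAGE and sequenced. Relative association constants came from read-count changes of each RNA species compared with the control reaction, normalised to the cognate motif.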

Row | Binder | binding signal
1 | B1 | 0.074 KA relative to UGCAUGU
2 | B2 | 0.036 KA relative to UGCAUGU
3 | B3 | 0.0595 KA relative to UGCAUGU
4 | B4 | 0.0959 KA relative to UGCAUGU
5 | B5 | 0.0698 KA relative to UGCAUGU
6 | B6 | 0.0836 KA relative to UGCAUGU
7 | B7 | 0.0806 KA relative to UGCAUGU
8 | B8 | 0.111 KA relative to UGCAUGU
9 | B9 | 0.0813 KA relative to UGCAUGU
10 | B10 | 0.0527 KA relative to UGCAUGU
11 | B11 | 0.0777 KA relative to UGCAUGU
12 | B12 | 0.0546 KA relative to UGCAUGU
13 | B13 | 0.107 KA relative to UGCAUGU
14 | B14 | 0.107 KA relative to UGCAUGU
15 | B15 | 0.0632 KA relative to UGCAUGU
16 | B16 | 0.105 KA relative to UGCAUGU
17 | B17 | 0.0872 KA relative to UGCAUGU
18 | B18 | 0.0612 KA relative to UGCAUGU
19 | B19 | 0.0918 KA relative to UGCAUGU
20 | B20 | 0.0632 KA relative to UGCAUGU
